# Data taken from PubChem BioAssay AID686978 (National Center for Advancing Translational Sciences (NCATS), 2013).
# “And” between values parts separate entries of the source, which are not always exact repeats. Identical values can stand only once. The campaign covered roughly 420,000 compounds. About 64,000 (15%) were called active. The inconclusive results got no clear call from the source; some entries with a clear call stand among them for comparison. Calls follow the shape of the dose curve; as a rule, active = well fitted inhibition curve with a large enough effect; inconclusive = small, poorly fitted or top-dose-only effect; inactive = flat fitted curve, though single readings scatter. Where the call is inconclusive, the potency comes from a doubtful curve fit.
# Test: qHTS for Inhibitors of human tyrosyl-DNA phosphodiesterase 1 (TDP1): qHTS in cells in absence of CPT; also: nearly all actives have a fitted effect of over 55% in size
# Conditions: DT40 Tdp1-/- hTDP1 cells, no CPT, ATP luminescence, 48 h; activity change, negative = growth inhibition: at 46.2 µM (top of the series) unless noted
# Procedure, shortened: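 Stably hTDP1-transfected Tdp1-null chicken DT40 cells were treated with library compounds minus camptothecin and grown for at least 48 hr at 37 °C, after which cellular ATP was quantified by luminescence.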
# % is scaled to controls: 0 for no effect and ±100 for the full control effect; potency is read from the fitted curve at half-maximal effect; tags tell the direction and shape of the fitted curve.
Compound,Potency,"activity change, negative = growth inhibition"
CC(C)c1ccc(NC(=O)CCNS(=O)(=O)c2cc(Br)cnc2N)cc1,"inconclusive: 18.4 µM [inhibitor, single point]",–
COc1ccc(C(=O)N/C(=C\c2cn(S(=O)(=O)N(C)C)c3ccccc23)C(=O)NCCN2CCOCC2)cc1OC,–,inactive: 3.61%
COc1cc(CN2CCN(Cc3ccccc3C(F)(F)F)CC2)cc(OC)c1OC,active: 25.9 µM,–
O=C(N1CCCC1)C12CC3CC(CC(Cl)(C3)C1)C2,"inconclusive: 20.6 µM [inhibitor, single point]",–
CCOC(=O)c1cnc2cc(C)nn2c1-c1ccccc1,"inconclusive: 7.31 µM [inhibitor, partial curve]",–
Fc1ccc(-c2csc(-c3ccncc3)n2)cc1,–,inactive: 15.7%
COc1cc2ncnc(NCc3ccccc3F)c2cc1OC,"inconclusive: 10.3 µM [inhibitor, partial curve]",–
CCCN(CC(=O)Nc1ccccc1OC)C(=O)CC1CCCC1,"inconclusive: 29.1 µM [inhibitor, single point]",–
COc1ccc(C)cc1S(=O)(=O)N1CCCC(C(=O)NC2CC2)C1 (stereo unspecified),–,inactive: 2.26%
O=C(N/N=C/c1ccc(O)c(Br)c1)c1cc2c(ccc3ccccc32)o1,–,inactive: -4.09%
COCCn1c(C)cc(C(=O)CSc2ccc3ccccc3n2)c1C,"inconclusive: 18.4 µM [inhibitor, single point]",–
Cn1ncc2cc(NC(=S)NC(=O)c3ccccc3)ccc21,"inconclusive: 25.9 µM [inhibitor, single point]",–
Cc1ccc(NCc2nnc(SCC(=O)Nc3ccccc3)n2CC2CCCO2)c(C)c1 (stereo unspecified),"inconclusive: 14.6 µM [inhibitor, single point]",–
O=C(c1cccnc1)c1ncc(C(F)(F)F)cc1Cl,–,inactive: -1.5%
Cc1ccc(F)cc1NC(=O)CSc1nc(-c2cccs2)cc(C(F)(F)F)n1,"inconclusive: 29.1 µM [inhibitor, single point]",–
O=C(Cn1ncc2c([nH]c3ccccc32)c1=O)NCCc1ccc(Cl)cc1,–,inactive: -12.4%
Cc1cccc2c1Sc1ccccc1CC2=O,"inconclusive: 0.58 µM [inhibitor, single point]",–
c1ccc(CCc2nc(-c3ccncc3)no2)cc1,"inconclusive: 22.4 µM [inhibitor, single point]",–
Cc1ccc(S(=O)(=O)N(C)C[C@@H]2OCc3cnnn3CCCC(=O)N([C@@H](C)CO)C[C@H]2C)cc1,–,inactive: -11.3%
O=C(O)C1CCC(Cn2c(SCc3cc(=O)n4cc(Cl)ccc4n3)nc3ccsc3c2=O)CC1 (stereo unspecified),"inconclusive: 20.6 µM [inhibitor, single point]",–
CN(C)c1ccc(NS(=O)(=O)c2ccc(Cl)cc2)cc1,"inconclusive: 23.1 µM [inhibitor, partial curve, poor fit]",–
COC(=O)c1c(-c2ccc(F)cc2)csc1NC(=O)C1CCCO1 (stereo unspecified),"inconclusive: 16.4 µM [inhibitor, single point]",–
COc1cccc(Nc2nc(-c3sc(NC(=O)c4ccccc4)nc3C)cs2)c1,active: 20.6 µM,–
COc1ccc(NC(=O)c2oc3ccccc3c2NC(=O)c2cc3ccccc3o2)c(OC)c1,–,inactive: -18.5%

Compound,Potency,"activity change, negative = growth inhibition"
CCCCN1CC[C@H]2C=CC[C@@H](C(=O)NC3CCCCC3)[C@H]2C1=O,"inconclusive: 35.5 µM [inhibitor, single point]",–
CCCOC(=O)c1c(NC(=O)CCCn2nc([N+](=O)[O-])cc2C)sc(C(=O)OC)c1C,"inconclusive: 18.4 µM [inhibitor, partial curve]",–
O=C1c2ccccc2NC2(CCCC2)N1O,"inconclusive: 18.4 µM [inhibitor, single point]",–
CC(=O)c1ccc(S(=O)(=O)NCc2ccc(C(=O)NCC(c3ccccc3)N(C)C)cc2)cc1 (stereo unspecified),–,inactive: -12%
CCOC(=O)C1CCN(C(c2cc3ccc(C)cc3[nH]c2=O)c2nnnn2C2CCCCC2)CC1 (stereo unspecified),"inconclusive: 29.1 µM [inhibitor, single point]",–
CC(=O)c1cc(F)ccc1OCC(=O)N1CCCc2ccccc21,"inconclusive: 16.4 µM [inhibitor, partial curve]",–
CCCCOC(=O)NC(NCC(O)c1ccccc1)(C(F)(F)F)C(F)(F)F (stereo unspecified),"inconclusive: 23.1 µM [inhibitor, single point]",–
Cc1cccc(NC(=O)c2cc([N+](=O)[O-])ccc2Cl)c1O,"inconclusive: 18.4 µM [inhibitor, single point]",–
CCOc1ccc(NC(=O)CSc2nnnn2C2CCCC2)cc1,"inconclusive: 16.4 µM [inhibitor, partial curve]",–
O=C1/C(=C\c2ccc(O)c(O)c2)N=C2CCCCCN12,"inconclusive: 18.4 µM [inhibitor, single point]",–
COc1cc(OC)cc(-n2c(=O)c3sccc3n(Cc3ccc(F)cc3)c2=O)c1,–,inconclusive: -10.5% [inhibitor]
Cc1cc(NC(=NC2CC2)c2ccccc2)n(-c2ccccc2)n1,–,inactive: -5.76%
O=S(=O)(Nc1ccc(OC(F)F)cc1)c1ccc(-c2ccon2)s1,"inconclusive: 0.0461 µM [inhibitor, full curve, poor fit]",–
Cc1cc(Br)ccc1NC(=O)c1sc2ncnc(N3CCN(c4ccccn4)CC3)c2c1C,active: 2.59 µM,–
O=C(NCc1ccccc1)c1c(O)c2cccc3c2n(c1=O)CCC3,"inconclusive: 32.6 µM [inhibitor, partial curve, poor fit]",–
Cc1cc(C)n(CCNC(=O)CC2C(=O)NCCN2Cc2ccc(C)o2)n1 (stereo unspecified),–,inactive: 9.42%
CCN1c2ccc(S(=O)(=O)N3CCOCC3)cc2N(Cc2ccc(OC)cc2)C1C (stereo unspecified),–,inconclusive: -5.05% [inhibitor]
Cn1nc(-c2cccnc2)nc2c(=O)n(C)c(=O)nc1-2,active: 1.26 µM,–
COc1ccc(-c2csc(NC(=O)c3ccco3)n2)cc1,–,inactive: -13.1%
CCN(Cc1ccccc1)C(=O)CSc1nc(C)cc(C)c1C#N,"inconclusive: 18.4 µM [inhibitor, partial curve]",–
COc1ccccc1CCn1cnc2c3cc(C)ccc3n(C)c2c1=O,active: 11.6 µM,–
CCN1CCN(c2nc(Nc3cccc(OC)c3)nc(N)c2[N+](=O)[O-])CC1,active: 9.2 µM,–
COc1ccc(N=Cc2ccc(N(CCC#N)CCC#N)cc2)cc1,–,inactive: -18.7%
COc1ccc(-c2nc(-c3cccnc3)no2)cc1,active: 15.8 µM,–

Compound,Potency,"activity change, negative = growth inhibition"
Cc1ccc(S(=O)(=O)Nc2cc3c4c(c2)CC(=O)N4CCC3)cc1,"inconclusive: 11.6 µM [inhibitor, partial curve]",–
CC(=O)c1cccc(NC(=O)c2cccc(NC(=O)c3ccco3)c2)c1,–,inactive: -7.16%
O=C(Nc1cc(S(=O)(=O)Nc2ccccc2Cl)ccc1O)c1sc2cc(Cl)ccc2c1Cl,–,inconclusive: -30.8% [inhibitor]
COC(=O)c1ccccc1NC(=O)CCCn1nc(C)c2c(C)n(-c3ccccc3)nc2c1=O,"inconclusive: 2.06 µM [inhibitor, full curve] and inconclusive: 10.3 µM [inhibitor, partial curve, poor fit]",–
CN1CCN(C(=O)c2cccc(-c3cnc4cnc(-c5ccccc5Oc5ccccc5)cn34)c2)CC1,active: 13 µM,–
CCOc1ccccc1CNC(=O)c1ccc(-n2c(C)cc3c2CCC(C)C3)cc1 (stereo unspecified),"inconclusive: 25.9 µM [inhibitor, single point]",–
Cc1ccnc(Nc2nc3ccccc3s2)n1,–,inactive: -12.8%
COc1ccccc1CCNC(=O)Cn1ccc2cc(S(=O)(=O)N3CCC(C)CC3)ccc21,"inconclusive: 25.9 µM [inhibitor, single point]",–
OC(Cc1ccccc1Br)c1ncc(-c2ccc(Cl)cc2)[nH]1 (stereo unspecified),"inconclusive: 25.9 µM [inhibitor, single point]",–
COC(=O)c1sc(NC(=S)NC(=O)c2ccccc2Cl)nc1C,"inconclusive: 23.1 µM [inhibitor, single point]",–
CCn1c2ccccc2c2cc(CN3CCN(Cc4cccc(Cl)c4)CC3)ccc21,"inconclusive: 20.6 µM [inhibitor, single point]",–
COc1ccc(-c2noc(CCC(=O)Nc3ccc(C)c(C)c3)n2)cc1,–,inactive: -25.2%
O=[N+]([O-])c1ccccc1SN(Cc1ccccc1)c1ccccn1,active: 14.6 µM,–
N#Cc1ccc(-c2csc(NC(=O)c3ccc(N4C(=O)CCC4=O)cc3)n2)cc1,"inconclusive: 16.4 µM [inhibitor, single point]",–
COc1cccc(C(=O)N2CCC2(C)C(=O)NC(C)C)c1 (stereo unspecified),"inconclusive: 6.51 µM [inhibitor, single point]",–
COc1cc(C(CC(=O)NCc2ccccc2Cl)N2Cc3ccccc3C2=O)cc(OC)c1OC (stereo unspecified),–,inactive: -22%
CCN(CC)C(=O)C(C)N(C#N)c1nc(Cl)nc(N(C)C)n1 (stereo unspecified),–,inactive: 10.3%
CCN1CCN(C(=O)c2ccc3c(=O)n(C4CCCC4)c(=S)[nH]c3c2)CC1,"inconclusive: 16.4 µM [inhibitor, single point]",–
Cc1ccc(CNC(=O)c2cc(-c3ccc(C)c(C)c3)nc3ccccc23)cc1,"inconclusive: 25.9 µM [inhibitor, single point]",–
COc1ccc(-n2nc(C(=O)NCC(=O)NCc3ccc(F)cc3)c3ccccc3c2=O)cc1,active: 18.4 µM,–
COc1ccc(S(=O)(=O)N2CCCCC2c2cc(C(=O)Nc3ccc(OC)cc3C)no2)cc1 (stereo unspecified),active: 18.4 µM,–
Cc1ccc(S(=O)(=O)N2CCN(c3nc(-c4ccc(C)s4)nc4ccccc34)CC2)cc1,"inconclusive: 35.5 µM [inhibitor, single point]",–
COc1cc2c(cc1OC)-c1cc(Nc3cccc(F)c3)nc(=O)n1CC2,"inconclusive: 16.4 µM [inhibitor, partial curve, poor fit]",–
